The results in this text go back to PubChem BioAssay AID1159614 (National Center for Advancing Translational Sciences (NCATS), 2016).

Out of some 45,000 compounds screened, about 65 (0.1%) were called active. Calls come from the whole dose curve; as a rule, active = well fitted activation curve with a large enough effect; inconclusive = small, poorly fitted or top-dose-only effect; inactive = no such curve, though single readings can be large or run the other way. The list shows a part of the results.

In this test the target is Galactocerebrosidase (Homo sapiens) (UniProt P54803). In words: A Novel Cell-Based Assay to Identify Small Molecules for B -Galactocerebrosidase. Note: 0% is about no effect; nearly all actives have a fitted effect of over 65% in size. The settings on record: 145M-Twi-hGALC-G270D cells (Twitcher mouse brain line with human GALC G270D), HMU-beta-Gal fluorescence, 48 h; series mostly up to 57.5 µM; activation: at the top concentration. The gist of the method: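 Live 145M-Twi cells (Twitcher mouse brain-derived, GALC-null) stably expressing human GALC-G270D, with a wild-type GALC line, were compound-treated. Residual GALC activity was then read as fluorescence from 0.1 mM final HMU-β-gal at pH 5.2; higher signal means activation.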
Chain of UniProt P54803 (P54803 whole entry, looked up): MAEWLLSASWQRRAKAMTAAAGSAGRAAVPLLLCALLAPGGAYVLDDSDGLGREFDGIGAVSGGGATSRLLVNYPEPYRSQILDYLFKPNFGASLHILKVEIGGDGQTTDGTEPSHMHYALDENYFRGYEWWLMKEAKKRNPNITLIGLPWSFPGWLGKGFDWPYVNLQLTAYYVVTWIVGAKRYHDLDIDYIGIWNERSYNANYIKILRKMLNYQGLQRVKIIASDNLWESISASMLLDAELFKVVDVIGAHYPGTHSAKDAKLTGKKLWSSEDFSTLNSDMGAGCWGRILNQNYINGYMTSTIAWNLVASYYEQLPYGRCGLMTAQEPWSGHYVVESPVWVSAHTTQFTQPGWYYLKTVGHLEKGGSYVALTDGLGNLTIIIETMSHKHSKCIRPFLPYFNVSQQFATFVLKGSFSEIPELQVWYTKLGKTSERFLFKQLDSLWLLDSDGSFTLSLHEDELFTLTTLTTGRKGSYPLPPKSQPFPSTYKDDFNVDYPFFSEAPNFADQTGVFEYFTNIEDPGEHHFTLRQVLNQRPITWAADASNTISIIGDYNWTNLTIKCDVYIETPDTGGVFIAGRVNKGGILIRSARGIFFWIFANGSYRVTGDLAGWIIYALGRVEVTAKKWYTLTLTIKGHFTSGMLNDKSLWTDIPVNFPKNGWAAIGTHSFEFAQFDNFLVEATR
As for `Cc1ccc(N2C(=O)NC(NS(=O)(=O)c3ccccc3)(C(F)(F)F)C2=O)cc1C` (stereo not drawn), the “activation” value was inactive: 3.44%. Under `CCOC(=O)c1ccc(O)c(O)c1` stands inactive: -10.9%; under `Cc1cccc(NC(=O)N2CCN(C(=O)c3nsc4ccccc34)CC2)c1C`, inactive: -6.82%. Under `CCC1CCCCN1CCCNC(=O)CN1C(=O)c2cccnc2Oc2ccc(C)cc21` (stereo not drawn) stands inactive: -13.9%; under `O=C(Nc1ccc(Br)cc1F)C1CCN(c2nc3ccccc3[nH]2)CC1`, inactive: 3.37%. The same measure for `Clc1ccc2c(c1)-c1c(cnc3cc(-c4ccccc4)nn13)CO2`: inactive: -15.5%; for `COC(=O)COc1ccc2oc(-c3ccc(OC)cc3)cc(=O)c2c1`: inactive: 0.0439%. Turning to `COc1ccc(N2CCN(C(=O)c3cnn(-c4ccc(F)cc4)c3-n3cccc3)CC2)cc1`, the “activation” value is inactive: 10.5%.

Turning to `CC1CN(C(=O)N2CCC(C(=O)N3CCN(c4ccccc4)CC3)CC2)c2cc(Cl)ccc2O1` (stereo not drawn), the “activation” value is inactive: -1.66%.

Turning to `CCOc1ccc2nc(N3CCC(C(=O)Nc4ccccc4CC)CC3)sc2c1`, the “activation” value was inactive: -11.3%. The same measure for `CCOc1ccc(C(=O)Nc2nnc(S(=O)(=O)Nc3ccccc3)s2)cc1`: inactive: -20.3%. In the case of `CCOc1cc2[nH]c(=O)n(CCCCC(=O)N3CCN(c4ccc(OC)cc4)CC3)c(=O)c2cc1OCC`, the “activation” value is inactive: -8.57%.

Turning to `O=C1CCCc2cc(S(=O)(=O)N3CCCC(C(=O)Nc4ccc(F)c(Cl)c4)C3)ccc2N1` (stereo not drawn), the “activation” value is inactive: -38.8%. As to `CSc1cccc(Nc2cc(C(=O)NCCc3ccc(Cl)cc3)c3ccccc3n2)c1`, the “activation” value was inactive: 7.79%. Under `O=C(Cn1c(=O)n(CCCS(=O)(=O)C2CCCCC2)c(=O)c2ccccc21)Nc1ccccc1C(F)(F)F` stands inactive: -14.1%; under `COc1ccc(NC(=O)CCn2c(=O)c3cccn3c3cccnc32)cc1Cl`, inactive: -11.5%; under `Cc1ccc(S(=O)(=O)c2[nH]c(-c3ccccc3)nc2SCC(N)=O)cc1`, inactive: -4.58%. Under `Cc1oc2c(cc(NS(=O)(=O)c3ccc(C(C)C)cc3)c3ccccc32)c1C(=O)O` stands inactive: -15.5%; under `CC(C)C(=O)N1c2nc(-c3ccco3)nn2C2(CCCCC2)[C@@H]2CCCC[C@@H]21`, inactive: 15.7%; under `CC(=O)Nc1ccc(S(=O)(=O)N2CCC(c3nnc(-c4ccc(C)cc4)o3)CC2)cc1`, inactive: -13.6%. As for `CCN(CC)C(=O)c1sc2c(c1C)c(=O)n(-c1ccc(Cl)c(Cl)c1)c(=O)n2Cc1cc(=O)n2ccccc2n1`, the “activation” value is inactive: -8.83%. The same measure for `COc1cccc(CNC(=O)Cn2c(=O)n3nc(-c4cccc(F)c4)nc3c3ccccc32)c1`: inactive: 1.15%; for `Cc1ccc(CCNc2ncnc3onc(-c4ccc(F)cc4)c23)cc1`: inactive: -12.1%; for `CCOc1ccccc1NC(=O)C(CC)Sc1nc2ncccc2[nH]1` (stereo not drawn): inactive: 6.2%.

On to `Cc1ccc2oc3c(c(=O)c2c1)C(c1ccccc1F)N(CCCN(C)C)C3=O` (stereo not drawn), for which the “activation” value is inactive: -15%. Under `O=C(NCc1ccc2c(c1)CCN2C(=O)c1ccccc1)c1ccccc1` stands inactive: 0.26%; under `CCCSc1nnc2c(n1)OC(c1ccc(Br)s1)Nc1ccccc1-2` (stereo not drawn), inactive: -27%. The same measure for `COc1ccc(CNC(=O)C2=C(C)C(=O)OC23CCCCC3)cc1`: inactive: -10.5%; for `COc1ccc(-n2ncc3c2ncn2nc(COc4ccc(Cl)cc4)nc32)cc1`: inactive: -12.3%. Under `COc1ccccc1CNS(=O)(=O)c1ccc2c(c1)CC(=O)N2C` stands inactive: 23.5%; under `CCOC(=O)N1CCN(C(=O)c2c(C)nn(-c3cccc(C)c3)c2-n2cccc2)CC1`, inactive: 4.62%; under `COC(=O)c1sc2ncccc2c1-n1c(C)ccc1C`, inactive: -5.38%. For `Cc1ccc(C)c(N2CCN(C(=O)CCS(=O)(=O)c3cc4c(cc3Cl)NC(=O)CO4)CC2)c1`, the “activation” value is inactive: -35.7%. Turning to `Cc1ccc(S(=O)(=O)N2CCc3cc(C(=O)Nc4ccc(C(F)(F)F)cc4)ccc32)cc1`, the “activation” value was inactive: -14%. On to `Cc1cc(C(F)F)n2nc(C(=O)Nc3ccc(C(C)C)cc3)nc2n1`, for which the “activation” value was inactive: -11.1%. Under `Cc1oc(-c2ccccc2Cl)nc1CS(=O)CC(=O)NCc1ccc(Cl)cc1` (stereo not drawn) stands inactive: -10.7%; under `COc1ccc(CCNC(=O)CSc2cn(CCNC(=O)c3cccc(C(F)(F)F)c3)c3ccccc23)cc1OC`, inactive: 0.374%; under `Cc1ccc(-n2ncc3c(N4CCC(C(N)=O)CC4)ncnc32)cc1`, inactive: -4.37%. As for `O=C(Cn1ncc2ccsc2c1=O)N1CCN(c2ccc(F)cc2)CC1`, the “activation” value was inactive: -15.2%. Turning to `CCC1CN(C(=O)Nc2cccc3c2CCCC3)c2cc(Cl)ccc2O1` (stereo not drawn), the “activation” value is inactive: -10.2%. Under `CCOc1ccc(-c2cn(-c3ccc(C)cc3)c(SCC(=O)Nc3ccc(C)cc3)n2)cc1` stands inactive: -10.3%. Under `O=C(Cn1c2ncccc2c(=O)n1-c1ccccc1)NCc1ccccc1Cl` stands inactive: -19%; under `COc1cccc(CNC(=O)C(C)n2ncn3cccc3c2=O)c1OC` (stereo not drawn), inactive: -9.26%; under `Cc1ccc(NC(=O)Cc2coc3ccc(C(C)C)cc23)c(C)c1`, inactive: -21.3%. The same measure for `O=S(=O)(Nc1nc2ccccc2nc1Nc1ccccc1Br)c1ccccc1`: inactive: -25.1%; for `Fc1ccc(-c2ccc(CNCCSc3nnnn3-c3ccccc3)o2)cc1`: inactive: -11.1%; for `Cc1ccc(COc2ccc(-c3cc(C(F)(F)F)n4nc(C)cc4n3)cc2)cc1`: inactive: 9.63%.

`O=C(CSc1nc2c([nH]c3ccccc32)c(=O)n1-c1cccc(Cl)c1)NCC1CCCO1` (stereo not drawn): the “activation” value is inactive: -25.7%.
